In all, about 420,000 compounds went through this assay and about 64,000 (15%) were called active. Inconclusive means that the source gave no clear call. Such entries were picked first, then a sample of the others. Calls come from the whole dose curve; as a rule, active = well fitted inhibition curve with a large enough effect; inconclusive = small, poorly fitted or top-dose-only effect; inactive = flat fitted curve, though single readings scatter. Potencies of inconclusive entries are left out as doubtful fits.
assay: qHTS for Inhibitors of human tyrosyl-DNA phosphodiesterase 1 (TDP1): qHTS in cells in absence of CPT; details: DT40 Tdp1-/- hTDP1 cells, no CPT, ATP luminescence, 48 h; series mostly up to 46.2 µM; note: nearly all actives have a fitted effect of over 55% in size
How it was run: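 Compound effects on proliferation are scored in DT40 Tdp1-/-;hTDP1 cells in the absence of CPT. ATP levels (CellTiter-Glo luminescence) are recorded after a ≥48 hr, 37 °C incubation.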
Potency is the fitted concentration of half-maximal effect; tags give direction and shape of the fitted curve.

Row | Compound | Potency
1 | Cc1ccc(C)c(N2CCN(C(=O)CCc3nc4ccccc4[nH]3)CC2)c1 | inconclusive [inhibitor, partial curve]
2 | N/C(=N\c1nc2ccccc2o1)NC(=O)c1ccccc1NC(=O)c1ccccc1 | active: 3.66 µM
3 | COc1ccc(C(=O)Nc2cc3c(cc2Cl)OCCCO3)cc1 | inconclusive [inhibitor, single point]
4 | CCCCOP(=O)(c1ccc(N(C)C)cc1)C(O)c1ccccc1F (configuration not stated) | inconclusive [inhibitor, single point]
5 | Fc1ccc(F)c(Nc2c3c(nc4ccc(Cl)cc24)CCC3)c1 | inconclusive [inhibitor, single point]
6 | Cn1c(SCc2ccccc2)nc(C(F)(F)F)cc1=O | inactive
7 | COCCN(C(=O)CNC(=O)c1ccco1)C(C(=O)NC1CCCC1)c1ccccc1F (configuration not stated) | inactive
8 | Cc1ccc(S(=O)(=O)NN=C2CCCc3ccccc32)cc1 | inconclusive [inhibitor, single point]
9 | O=C(c1cccc(Cn2cccn2)c1)N1CCOc2c(cc(-c3csc4ccccc34)cc2OC2CCOC2)C1 (configuration not stated) | inconclusive [inhibitor, partial curve, poor fit]
10 | COc1ccccc1/C=C(/C(=O)OCC(=O)N(C)Cc1ccccc1)c1ccccc1 | active: 13 µM
11 | CC(C)CC(=O)N1CCN(Cc2ccc(Br)cc2)CC1 | inconclusive [inhibitor, partial curve]
12 | O=C(Cc1ccc(Br)cc1)N1CCN(C(=O)c2ccccc2)CC1 | inactive
13 | CCOC(=O)c1cc(-c2cccc([N+](=O)[O-])c2)n[nH]1 | inactive
14 | CCn1nc(C)cc1C(=O)N1CCCC(Nc2ccc(F)c(F)c2)C1 (configuration not stated) | inactive
15 | O=C(CSc1nnc(-c2cc(-c3cccs3)nc3ccccc23)o1)NC1CCCCC1 | inconclusive [inhibitor, single point]
16 | O=C(c1ccco1)N1CCC2(CCCN(c3ccccc3)C2)CC1 | inconclusive [inhibitor, partial curve]
17 | CCCNC(=S)N1CCC(NC(=O)C2CCCCC2)CC1 | inconclusive [inhibitor, single point]
18 | CCCN(C#N)c1nc(NCC)nc(NC(C)C)n1 | inconclusive [inhibitor, single point]
19 | CC(C)C[C@H]1CNC(=S)N1C[C@H]1CCCN1C[C@H](Cc1ccc(O)cc1)N1C[C@H](Cc2ccc(O)cc2)N(CCc2ccccc2)C1=S | inconclusive [inhibitor, single point]
20 | CSCCC(NS(=O)(=O)c1ccccc1F)C(=O)N1CC=C(c2ccccc2)CC1 (configuration not stated) | inconclusive [inhibitor, single point]
21 | C/C(=N/N1CCN(c2ccccc2)CC1)c1cccc([N+](=O)[O-])c1 | inconclusive [inhibitor, single point]

Row | Compound | Potency
22 | COc1ccc2c(c1)CCCC(Br)C2=O (configuration not stated) | active: 3.26 µM
23 | COc1ccc(-c2cc(C(F)(F)F)nc(S(C)(=O)=O)n2)cc1OC | active: 5.17 µM
24 | COC(=O)Nc1nc(Sc2ncc(C(F)(F)F)cc2Cl)n[nH]1 | inactive
25 | O=C(c1ccco1)N1CCN(S(=O)(=O)c2ccc(Br)s2)CC1 | inconclusive [inhibitor, partial curve]
26 | COc1ccc(NC(=O)CCc2nc3cccnc3n2-c2ccccc2)c(OC)c1 | inconclusive [inhibitor, full curve, poor fit]
27 | Cc1ccc2nc(-c3ccccn3)cc(C(=O)NC(C)C(C)(C)C)c2c1 (configuration not stated) | inconclusive [inhibitor, single point]
28 | COc1ccc(N2C(=O)C(CC(=O)Nc3ccc(Cl)cc3)N(Cc3ccc4c(c3)OCO4)C2=O)cc1 (configuration not stated) | inconclusive [inhibitor, single point]
29 | N#Cc1cccc(CN2CCCN(Cc3ccc(F)cc3)S2(=O)=O)c1 | inconclusive [inhibitor, single point]
30 | COc1ccc([C@H]2CC(=O)C=C(c3cccc4c3Oc3ccccc3S4)C2)cc1 | inconclusive [inhibitor, single point]
31 | Cc1ccccc1OCCOc1cccc(/C=N/NC(=O)Cc2nnc(N)s2)c1 | inconclusive [inhibitor, single point]
32 | CCCCCn1c(SCC2CCCO2)nc2cc(C(=O)N3CCC(C(N)=O)CC3)ccc2c1=O (configuration not stated) | inconclusive [inhibitor, single point]
33 | NC(=S)NN=C1C2CC3CC(C2)CC1C3 | inconclusive [inhibitor, single point]
34 | C=CCN1CN(Cc2ccco2)CNC1=S | inconclusive [inhibitor, single point]
35 | CN(C(=O)COC(=O)CCCN1C(=O)c2cccc3cccc(c23)C1=O)C1CCS(=O)(=O)C1 (configuration not stated) | inactive
36 | Nc1nc2c(nc(Br)n2[C@@H]2O[C@H]3COP(=O)(O)O[C@H]3[C@@H]2O)c(=O)[nH]1 | inactive
37 | Cn1c(C(=O)NCCCN2CCN(c3cccc(Cl)c3)CC2)cc2c(=O)n(C)c3ccccc3c21 | inconclusive [inhibitor, single point]
38 | COC(=O)c1cc(C(=O)OC)cc(N2C(=O)CC(N3CCN(c4ccccc4)CC3)C2=O)c1 (configuration not stated) | inconclusive [inhibitor, single point]
39 | Cc1ccc(C)c(NC(=O)CN(C)C(=O)c2oc3c(Cl)cccc3c2C)c1 | inconclusive [inhibitor, single point]
40 | CC1(C)CC(=O)c2sc(NC(=O)c3cccs3)nc2C1 | inconclusive [inhibitor, partial curve]
41 | Cc1ccnc(SCC(=O)N2CCN(c3cccc(Cl)c3)CC2)n1 | inconclusive [inhibitor, partial curve, poor fit]
42 | CCCCOc1ccc(OCCNC(=O)C2CCCN2C(=O)Nc2ccccc2)cc1 (configuration not stated) | inconclusive [inhibitor, single point]

— PubChem BioAssay AID686978 (National Center for Advancing Translational Sciences (NCATS), 2013)
